# The supplement of paper PMC8728848
# The list shows a part of the results.
# B1: FimA-N1 (Actinomyces oris) (protein)
# chain: MHHHHHHSSGVDLGTENLYFQSNATETPNYGNIKTDATGSLVIHKHLTGGGKDIGTPTGTAQNADDKGPAVEGVVFTAYPITDINLKDPAGWDTISNLSRTGVPDSACANPAAPTLGAHQFGTPKVSPATTKEGLATITEMPVQAYLVCETTTPGDIVQKAKPFVVTIPHPNTAAGADGQWIYDVNVYPKNEAIDVDKTIQAQK
# Legend:
# Test in all cases: glycan array binding signal (z-score within array); higher = stronger binding
# Conditions in all cases: glycan notation: IUPAC condensed, linker removed
# [1] = target: Man(a1-2)Man(a1-3)[Man(a1-2)Man(a1-6)]Man(a1-6)[Man(a1-2)Man(a1-2)Man(a1-3)]Man
# Procedure, shortened: (§1)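 Negative Z-scores can be read as non-binding. The Z-score is calculated within each array and then averaged across arrays of one protein sequence at different concentrations or buffers and across linkers. Arrays, 3228 in all, were curated from the Consortium for Functional Glycomics database and kept only where the protein sequence was available.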
# [2] = target: Man(a1-2)Man(a1-3)[Man(a1-2)Man(a1-6)]Man(a1-6)[Man(a1-2)Man(a1-2)Man(a1-3)]Man(b1-4)GlcNAc(b1-4)GlcNAc
# Procedure, shortened: as §1
# [3] = target: Man(a1-2)Man(a1-3)[Man(a1-6)]Man(a1-6)[Man(a1-2)Man(a1-3)]Man(b1-4)GlcNAc(b1-4)GlcNAc
# Procedure, shortened: as §1
# [4] = target: Man(a1-2)Man(a1-6)[Man(a1-3)]Man(a1-6)[Man(a1-2)Man(a1-2)Man(a1-3)]Man
# Procedure, shortened: as §1
# [5] = target: Man(a1-2)Man(a1-6)[Man(a1-3)]Man(a1-6)[Man(a1-2)Man(a1-2)Man(a1-3)]Man(b1-4)GlcNAc(b1-4)GlcNAc
# Procedure, shortened: as §1
# Man(a1-3)[Man(a1-6)]Man = target: Man(a1-3)[Man(a1-6)]Man
# Procedure, shortened: as §1
# [6] = target: Man(a1-3)[Man(a1-6)]Man(a1-6)[Man(a1-2)Man(a1-3)]Man(b1-4)GlcNAc(b1-4)GlcNAc
# Procedure, shortened: as §1
# [7] = target: Man(a1-3)[Man(a1-6)]Man(a1-6)[Man(a1-3)]Man
# Procedure, shortened: as §1
# [8] = target: Man(a1-3)[Man(a1-6)]Man(a1-6)[Man(a1-3)]Man(b1-4)GlcNAc(b1-4)GlcNAc
# Procedure, shortened: as §1
# [9] = target: Man(a1-3)[Man(a1-6)]Man(b1-4)GlcNAc(b1-4)GlcNAc
# Procedure, shortened: as §1
# [10] = target: Man(a1-3)[Man(a1-6)]Man(b1-4)GlcNAc(b1-4)[Fuc(a1-6)]GlcNAc
# Procedure, shortened: as §1
# Man(a1-6)Man = target: Man(a1-6)Man
# Procedure, shortened: as §1
# Man(b1-4)GlcNAc = target: Man(b1-4)GlcNAc
# Procedure, shortened: as §1
# MurNAc(b1-4)GlcNAc = target: MurNAc(b1-4)GlcNAc
# Procedure, shortened: as §1
# Neu5Ac(a2-3)Gal = target: Neu5Ac(a2-3)Gal
# Procedure, shortened: as §1
# [11] = target: Neu5Ac(a2-3)Gal(b1-3)GalNAc
# Procedure, shortened: as §1
# [12] = target: Neu5Ac(a2-3)Gal(b1-3)GalNAc(b1-3)Gal(a1-4)Gal(b1-4)Glc
# Procedure, shortened: as §1
# [13] = target: Neu5Ac(a2-3)Gal(b1-3)GalNAc(b1-4)[Neu5Ac(a2-3)]Gal(b1-4)Glc
# Procedure, shortened: as §1
# [14] = target: Neu5Ac(a2-3)Gal(b1-3)GalNAc(b1-4)[Neu5Ac(a2-8)Neu5Ac(a2-3)]Gal(b1-4)Glc
# Procedure, shortened: as §1
# [15] = target: Neu5Ac(a2-3)Gal(b1-3)GalNAc6S
# Procedure, shortened: as §1
# [16] = target: Neu5Ac(a2-3)Gal(b1-3)GlcNAc
# Procedure, shortened: as §1
# [17] = target: Neu5Ac(a2-3)Gal(b1-3)GlcNAc(b1-2)Man
# Procedure, shortened: as §1
# [18] = target: Neu5Ac(a2-3)Gal(b1-3)GlcNAc(b1-2)Man(a1-3)[GlcNAc(b1-4)][Neu5Ac(a2-3)Gal(b1-3)GlcNAc(b1-2)Man(a1-6)]Man(b1-4)GlcNAc(b1-4)GlcNAc
# Procedure, shortened: as §1
# [19] = target: Neu5Ac(a2-3)Gal(b1-3)GlcNAc(b1-2)Man(a1-3)[Neu5Ac(a2-3)Gal(b1-3)GlcNAc(b1-2)Man(a1-6)]Man(b1-4)GlcNAc(b1-4)GlcNAc
# Procedure, shortened: as §1
# [20] = target: Neu5Ac(a2-3)Gal(b1-3)GlcNAc(b1-3)Gal(b1-3)GlcNAc
# Procedure, shortened: as §1
# [21] = target: Neu5Ac(a2-3)Gal(b1-3)GlcNAc(b1-3)Gal(b1-4)GlcNAc
# Procedure, shortened: as §1
# [22] = target: Neu5Ac(a2-3)Gal(b1-3)GlcNAc(b1-3)GalNAc
# Procedure, shortened: as §1
# [23] = target: Neu5Ac(a2-3)Gal(b1-3)GlcNAc(b1-4)Gal(b1-4)Glc
# Procedure, shortened: as §1
# [24] = target: Neu5Ac(a2-3)Gal(b1-3)GlcNAc(b1-6)GalNAc
# Procedure, shortened: as §1
# [25] = target: Neu5Ac(a2-3)Gal(b1-3)GlcNAc6S
# Procedure, shortened: as §1
# [26] = target: Neu5Ac(a2-3)Gal(b1-3)[Fuc(a1-4)]GlcNAc
# Procedure, shortened: as §1
# [27] = target: Neu5Ac(a2-3)Gal(b1-3)[Fuc(a1-4)]GlcNAc(b1-3)Gal(b1-3)[Fuc(a1-4)]GlcNAc
# Procedure, shortened: as §1
# [28] = target: Neu5Ac(a2-3)Gal(b1-3)[Fuc(a1-4)]GlcNAc(b1-3)Gal(b1-4)[Fuc(a1-3)]GlcNAc
# Procedure, shortened: as §1
# [29] = target: Neu5Ac(a2-3)Gal(b1-3)[GlcNAc(b1-6)]GalNAc
# Procedure, shortened: as §1
# [30] = target: Neu5Ac(a2-3)Gal(b1-3)[Neu5Ac(a2-6)]GalNAc
# Procedure, shortened: as §1
# [31] = target: Neu5Ac(a2-3)Gal(b1-3)[Neu5Ac(a2-6)]GlcNAc(b1-3)[Fuc(a1-3)[Gal(b1-4)]GlcNAc(b1-6)]Gal(b1-4)Glc
# Procedure, shortened: as §1
# [32] = target: Neu5Ac(a2-3)Gal(b1-3)]Neu5Ac(a2-3)Gal(b1-4)]GlcNAc
# Procedure, shortened: as §1
# Neu5Ac(a2-3)Gal(b1-4)Glc = target: Neu5Ac(a2-3)Gal(b1-4)Glc
# Procedure, shortened: as §1
# [33] = target: Neu5Ac(a2-3)Gal(b1-4)GlcNAc
# Procedure, shortened: as §1
# [34] = target: Neu5Ac(a2-3)Gal(b1-4)GlcNAc(b1-2)Man
# Procedure, shortened: as §1
# [35] = target: Neu5Ac(a2-3)Gal(b1-4)GlcNAc(b1-2)Man(a1-3)[GlcNAc(b1-4)][Neu5Ac(a2-3)Gal(b1-4)GlcNAc(b1-2)Man(a1-6)]Man(b1-4)GlcNAc(b1-4)GlcNAc
# Procedure, shortened: as §1
# [36] = target: Neu5Ac(a2-3)Gal(b1-4)GlcNAc(b1-2)Man(a1-3)[Neu5Ac(a2-3)Gal(b1-4)GlcNAc(b1-2)Man(a1-6)]Man(b1-4)GlcNAc(b1-4)GlcNAc
# Procedure, shortened: as §1
# [37] = target: Neu5Ac(a2-3)Gal(b1-4)GlcNAc(b1-2)Man(a1-3)[Neu5Ac(a2-3)Gal(b1-4)GlcNAc(b1-2)Man(a1-6)]Man(b1-4)GlcNAc(b1-4)[Fuc(a1-6)]GlcNAc
# Procedure, shortened: as §1
# [38] = target: Neu5Ac(a2-3)Gal(b1-4)GlcNAc(b1-2)Man(a1-3)[Neu5Ac(a2-6)Gal(b1-4)GlcNAc(b1-2)Man(a1-6)]Man(b1-4)GlcNAc(b1-4)GlcNAc
# Procedure, shortened: as §1
# [39] = target: Neu5Ac(a2-3)Gal(b1-4)GlcNAc(b1-2)[Neu5Ac(a2-3)Gal(b1-4)GlcNAc(b1-4)]Man(a1-3)[GlcNAc(b1-4)][Neu5Ac(a2-3)Gal(b1-4)GlcNAc(b1-2)[Neu5Ac(a2-3)Gal(b1-4)GlcNAc(b1-6)]Man(a1-6)]Man(b1-4)GlcNAc(b1-4)GlcNAc
# Procedure, shortened: as §1
binder,measurement,setting,value
B1,glycan array binding signal (z-score),[1],-0.401
same,glycan array binding signal (z-score),[2],-0.316
same,glycan array binding signal (z-score),[3],-0.456
same,glycan array binding signal (z-score),[4],-0.351
same,glycan array binding signal (z-score),[5],-0.019
same,glycan array binding signal (z-score),Man(a1-3)[Man(a1-6)]Man,-0.359
same,glycan array binding signal (z-score),[6],0.024
same,glycan array binding signal (z-score),[7],0.2
same,glycan array binding signal (z-score),[8],-0.229
same,glycan array binding signal (z-score),[9],-0.122
same,glycan array binding signal (z-score),[10],-0.598
same,glycan array binding signal (z-score),Man(a1-6)Man,0.12
same,glycan array binding signal (z-score),Man(b1-4)GlcNAc,-0.154
same,glycan array binding signal (z-score),MurNAc(b1-4)GlcNAc,-0.089
same,glycan array binding signal (z-score),Neu5Ac(a2-3)Gal,-0.306
same,glycan array binding signal (z-score),[11],0.262
same,glycan array binding signal (z-score),[12],-0.235
same,glycan array binding signal (z-score),[13],0.282
same,glycan array binding signal (z-score),[14],-0.565
same,glycan array binding signal (z-score),[15],-0.296
same,glycan array binding signal (z-score),[16],0.086
same,glycan array binding signal (z-score),[17],-0.051
same,glycan array binding signal (z-score),[18],-0.41
same,glycan array binding signal (z-score),[19],0.232
same,glycan array binding signal (z-score),[20],-0.344
same,glycan array binding signal (z-score),[21],-0.463
same,glycan array binding signal (z-score),[22],-0.22
same,glycan array binding signal (z-score),[23],-0.472
same,glycan array binding signal (z-score),[24],0.079
same,glycan array binding signal (z-score),[25],-0.179
same,glycan array binding signal (z-score),[26],-0.213
same,glycan array binding signal (z-score),[27],-0.037
same,glycan array binding signal (z-score),[28],0.11
same,glycan array binding signal (z-score),[29],0.125
same,glycan array binding signal (z-score),[30],-0.045
same,glycan array binding signal (z-score),[31],-0.155
same,glycan array binding signal (z-score),[32],0.05
same,glycan array binding signal (z-score),Neu5Ac(a2-3)Gal(b1-4)Glc,-0.037
same,glycan array binding signal (z-score),[33],-0.146
same,glycan array binding signal (z-score),[34],0.189
same,glycan array binding signal (z-score),[35],-0.199
same,glycan array binding signal (z-score),[36],-0.075
same,glycan array binding signal (z-score),[37],-0.355
same,glycan array binding signal (z-score),[38],-0.244
same,glycan array binding signal (z-score),[39],-0.149
